According to patent publication US11998008B2, “Pesticides and methods of controlling pests” (The State of Israel, Ministry of Agriculture & Rural …, priority 2017, dated 2024):
At least one read-out could not be matched to a standard name with certainty.

Tests used:
P. digitatum = test: Fungicidal activity assay on PDA in sealed Petri dish (growth inhibition and mortality); assay type: cell-based, Penicillium digitatum; conditions: 2 days
Method: (§1) In exemplary procedures, the fungicidial activity of the compounds listed in Table 2 were examined by activity assays as follow: Petri dishes, 90 mm in diameter, with air volume of 80 mL, contained 10-12 mL of growth medium comprising potato dextrose agar (PDA) (Acumedia, Lansing, Michigan, USA) amended with tetracycline at 12 μg/mL. Each compound was placed on a disconnected cover from an Eppendorf tube that was located in the middle of the Petri dish and a hyphae-containing plug of each test fungus was added to the culture plate. In exemplary procedures, the tested compounds trans-2-heptenal, trans-2-octenal were tested in comparison with octanal, trans-2-octen-1-ol, methyl trans-2-octenoate, trans-3-octen-2-one and 3-pentenenitrile. In addition, cyclic ketones as 2-cyclopenten-1-one, 2-cyclohexen-1-one and α-tetralone were also examined. Then, the culture plate was sealed with parafilm and incubated at room-temperature for 2 days, after which the growth of the test fungi in those dishes was compared with those in the test compound-free control dishes. At the end of the assay, the viability of each test fungus was evaluated by transferring inoculum plugs to fresh PDA plates and observing the growth that developed within the next 2 days. The test fungi used in this study included but were not limited to Alternaria alternata, Botrytis cinerea, Sclerotinia rolfsii, Penicillium digitatum, Fusarium oxysporum f. sp. radicis-cucumerinum and Rhizoctonia solani.

[1] = tested on: Meloidogyne javanica second stage juveniles (J2s); test: Nematocidal activity: viability of J2 nematodes after 2 days exposure to the compound in a sealed box; assay type: in vivo; conditions: at the concentration given; 2 days incubation
Text: In exemplary procedures, the sedentary root-knot nematode from the genus Meloidogyne javanica second stage juveniles (J2s) was propagated on greenhouse-grown nematode-susceptible tomato Lycopersicon esculentum cv. ‘Avigail 870’ (Hazera, Shikmim, Israel), and nematode eggs were bulk-extracted from the roots with 0.05% (v/v) sodium hypochlorite (NaOCl) followed by sucrose flotation and successive sievings through nylon filters of 300, 120, 60, and 30 μm mesh sizes (AD Sinun Technologies, Petach Tikvah, Israel). For hatching J2, extracted eggs were placed on 30-μm sieves (AD Sinun Technologies) in 0.01 M MES (2-(N-morpholino) ethanesulfonic acid hydrate) pH 6.5 buffer under aseptic conditions in darkness for 5 days, and hatching J2s were collected for further experiments.
Seven vials, each containing 300 J2 nematodes with 0.5 mL of 0.01 M 2-(N-morpholino)ethanesulfonic acid (MES) buffer, were exposed to cyclic ketone compounds in order to examine their nematocidal activity and reduction in viability. In addition, a humid environment in a sealed 1 L box was maintained by addition 5 ml of distilled H2O to a 50-mm Petri plate. The box was sealed after compound addition into each 50-mm Petri plate together with 5-250 mg of perlite particles and incubated for 2 days in the dark at 25±1° C. C5 and C6 saturated and α,β-unsaturated cyclic ketones were tested for their nematocidal activity. The J2 nematodes viability was examined following exposure to the cyclic ketone compounds, by a straightforward small-scale nematode extraction method, based on the traditional Baermann funnel method. Briefly, all nematode suspensions were loaded onto 30-μm (AD Sinun Technologies) filters (1.0-1.5 cm height, 1.1-2.0 cm^3 internal area), and the nematodes were washed twice with 300 μL of 0.01 M MES buffer in order to remove any residues. Then, filters holding nematodes were placed into 15 mL Falcon centrifuge tubes, each containing 900 μL of 0.01 M of MES buffer. These filters allow active passage of only living J2s while paralyzed or dead nematodes remain on top of the filter. The whole apparatus including the filter holding the nematodes and the Falcon tubes were placed in the dark for 3 h at 25±1° C. Then, the filters were removed and the viable nematodes, which were able to actively cross the filter toward the 0.01 M of MES buffer, were collected from the Falcon tube and counted using a Nematode Counting Slide (Chalex LLC, Portland, OR, USA) and a SV11 stereomicroscope (Zeiss, Jena, Germany).
Data were analyzed by the JMP 12 software package (SAS Inc., Cary, NC, USA). Mean numbers of viable J2s under various conditions were subjected to one-way analysis of variance (ANOVA), followed by the Tukey-Kramer multiple comparison test, with significance set at P<0.05.

A. alternata = test: Fungicidal activity assay on PDA in sealed Petri dish (growth inhibition and mortality); assay type: cell-based, Alternaria alternata; conditions: 2 days
Method: as §1

S. rolfsii = test: as above; assay type: cell-based, Sclerotinia rolfsii; conditions: 2 days
Method: as §1, with “Each” for “In exemplary procedures, the fungicidial activity of the compounds listed in Table 2 were examined by activity assays as follow: Petri dishes, 90 mm in diameter, with air volume of 80 mL, contained 10-12 mL of growth medium comprising potato dextrose agar (PDA) (Acumedia, Lansing, Michigan, USA) amended with tetracycline at 12 μg/mL. Each”

B. cinerea = test: as above; assay type: cell-based, Botrytis cinerea; conditions: 2 days
Method: as §1

[2] = tested on: F. oxysporum f. sp. radicis-cucumerium; test: as above; assay type: cell-based, Fusarium oxysporum f. sp. radicis-cucumerinum; conditions: 2 days
Method: as §1, with “Each” for “In exemplary procedures, the fungicidial activity of the compounds listed in Table 2 were examined by activity assays as follow: Petri dishes, 90 mm in diameter, with air volume of 80 mL, contained 10-12 mL of growth medium comprising potato dextrose agar (PDA) (Acumedia, Lansing, Michigan, USA) amended with tetracycline at 12 μg/mL. Each”

R. solani = assay type: cell-based; conditions: 2 days
Method: as §1, with “Each” for “In exemplary procedures, the fungicidial activity of the compounds listed in Table 2 were examined by activity assays as follow: Petri dishes, 90 mm in diameter, with air volume of 80 mL, contained 10-12 mL of growth medium comprising potato dextrose agar (PDA) (Acumedia, Lansing, Michigan, USA) amended with tetracycline at 12 μg/mL. Each”

O=C/C=C/c1ccccc1 [trans-cinnamaldehyde]
I - Inhibition class (P. digitatum): LI (Low inhibition - 51-75% of growth inhibition compared to control.)
Activity: reduction in J2s viability relative to non exposed control J2s (class) [1]: N (<50% reduction in viability)
I - Inhibition class (A. alternata): SI (Strong inhibition - 100% of growth inhibition compared to control.)
I - Inhibition class (S. rolfsii): NI (<50% growth inhibition)
I - Inhibition class (B. cinerea): LI (Low inhibition - 51-75% of growth inhibition compared to control.)

O=C1CCCCC1 [Cyclohexanone]
I - Inhibition class (P. digitatum): SI (Strong inhibition - 100% of growth inhibition compared to control.)
Activity: reduction in J2s viability relative to non exposed control J2s (class) [1]: S 100 (>90% reduction in viability)
I - Inhibition class (A. alternata): SI (Strong inhibition - 100% of growth inhibition compared to control.)
I - Inhibition class [2]: LI (Low inhibition - 51-75% of growth inhibition compared to control.)
I - Inhibition class (S. rolfsii): SI (Strong inhibition - 100% of growth inhibition compared to control.)
I - Inhibition class (B. cinerea): SI (Strong inhibition - 100% of growth inhibition compared to control.)
I - Inhibition class (R. solani): LI (Low inhibition - 51-75% of growth inhibition compared to control.)

COc1ccc(C=O)cc1 [p-Anisaldehyde]
I - Inhibition class (P. digitatum): NI (<50% growth inhibition)
Activity: reduction in J2s viability relative to non exposed control J2s (class) [1]: N (<50% reduction in viability)
I - Inhibition class (A. alternata): NI (<50% growth inhibition)
I - Inhibition class (S. rolfsii): NI (<50% growth inhibition)
I - Inhibition class (B. cinerea): NI (<50% growth inhibition)

O=C1C=CCCC1 [2-cyclohexen-1-one]
I - Inhibition class (R. solani): NI (<50% growth inhibition)

CCOC(=O)C=Cc1ccccc1 [Ethyl cinnamate]
Activity: reduction in J2s viability relative to non exposed control J2s (class) [1]: N (<50% reduction in viability)

CCCCCCCCC=O [Nonanal]
I - Inhibition class (R. solani): SI (Strong inhibition - 100% of growth inhibition compared to control.)

CCC/C=C/C=O [trans-2-hexen-1-al]
Activity: reduction in J2s viability relative to non exposed control J2s (class) [1]: S (>90% reduction in viability)
I - Inhibition class [2]: SI (Strong inhibition - 100% of growth inhibition compared to control.)
I - Inhibition class (S. rolfsii): SI (Strong inhibition - 100% of growth inhibition compared to control.)
I - Inhibition class (R. solani): SI (Strong inhibition - 100% of growth inhibition compared to control.)

CC=CCC#N [3-pentenenitrile]
Activity: reduction in J2s viability relative to non exposed control J2s (class) [1]: M (76-90% reduction in viability)
I - Inhibition class [2]: NI (<50% growth inhibition)
I - Inhibition class (S. rolfsii): NI (<50% growth inhibition)
I - Inhibition class (R. solani): NI (<50% growth inhibition)
